Results as given in PubChem BioAssay AID588855 (National Center for Advancing Translational Sciences (NCATS), 2011).
Among all 410,000 compounds or so, about 5,000 (1.2%) were called active. The inconclusive results got no clear call from the source; some entries with a clear call stand among them for comparison. The call rests on the fitted dose curve; in most records, active means well fitted inhibition curve with a large enough effect; inconclusive means small, poorly fitted or top-dose-only effect; inactive means no such curve, though single readings can be large or run the other way. Potencies beside an inconclusive call are fits to weak or partial responses and may not hold up.

Experiment: qHTS for Inhibitors of TGF-b; further: nearly all actives have a fitted effect of over 65% in size
Conditions: HepG2 CAGA-GFP TGF-b/SMAD3 reporter, GFP fluorescence, 18 h, TGF-beta stimulated, 500 pg/mL final; series mostly up to 46.1 µM
How it was run: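 Read-out: total well GFP (ex488/em500-530) summed from mean per-cell fluorescence. Cells: HEPG2 CAGA-GFP, 1% FBS DMEM, 18 h at 37 degrees C with 500 pg/mL final TGF-beta. Unstimulated wells served as the full-inhibition control; stimulated DMSO wells = 0%.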
Potency means the concentration at half of the fitted maximal effect; tags describe the fitted curve by direction and shape.

SMILES	Potency
CC(=O)Nc1ccc(-c2csc(-c3cccnc3)n2)cc1	inactive
COc1ccc(NC(=O)c2c(NCc3cccc(F)c3)sc3c2CCCC3)c(OC)c1	inconclusive: 35.5 µM [inhibitor, single point]
NC(=S)NNc1cccc2cccnc12	inconclusive: 8.91 µM [inhibitor, partial curve, poor fit]
O=C(Cn1c(NCCCO)nc2ccccc21)c1cccc(Br)c1	inconclusive: 22.4 µM [inhibitor, single point]
O=C(Nc1cccc2ncccc12)c1ccc(Br)c([N+](=O)[O-])c1	inactive
Clc1ccc(-c2csc(Nc3ccccc3)[n+]2Cc2ccco2)c(Cl)c1	inconclusive: 15.8 µM [inhibitor, single point]
O=C(c1ccco1)N1CCN(C(c2ccccc2Cl)c2nnnn2Cc2cccs2)CC1 (stereo not given)	inconclusive: 35.5 µM [inhibitor, single point]
Cc1ccc2nc(SCC(=O)Nc3cccc(S(=O)(=O)N(C)C)c3)[nH]c2c1	inconclusive: 35.5 µM [inhibitor, single point]
CCCCOC(=O)Oc1ccc2c(=O)c(Oc3cccc(C)c3)coc2c1	inconclusive: 11.2 µM [inhibitor, single point]
Cc1noc(C)c1C(=O)N(CC(=O)Nc1ccc(Cl)c(C(F)(F)F)c1)Cc1ccco1	inconclusive: 35.5 µM [inhibitor, single point]
COc1cc(OC)c2c(-c3cccc(-c4ccc(F)c(Cl)c4)c3)cc(=O)oc2c1	inconclusive: 22.4 µM [inhibitor, partial curve, poor fit]
COc1ccc(CCN2CCC(CNC(=O)c3cnn(-c4ccccc4)c3C3CCN(C(=O)OC(C)(C)C)CC3)CC2)cc1	inconclusive: 2.51 µM [inhibitor, partial curve, poor fit]
C/C(=N\NC(=O)Cc1cccn1C)c1ccc2ccccc2c1	inactive
Cc1ccc(NCCCCO)cc1C	inactive
COc1ccccc1N1CCN(C(=O)c2cn(C)c3ccc(S(=O)(=O)N4CCOCC4)cc3c2=O)CC1	inactive
CC(NC(=S)NC1CCCCC1)c1ccccc1 (stereo not given)	inconclusive: 25.1 µM [inhibitor, single point]
O=S(=O)(c1cccc(F)c1)N1CCN(Cc2cc3c(cc2Br)OCCO3)CC1	inconclusive: 25.1 µM [inhibitor, single point]
CC(=O)N1CCc2cc(Br)cc(S(=O)(=O)N3CCN(c4cccc(C)c4)C(C)C3)c21 (stereo not given)	inactive
Cc1nn(C2CC(O)C(O)C(CO)O2)c(=O)[nH]c1=O (stereo not given)	inconclusive: 6.31 µM [inhibitor, single point]
C=C(C)COc1ccc(-c2nc(N)ncc2-c2ccc(Br)cc2)c(O)c1	active: 15.8 µM
COc1ccc(N2CCN(C(=O)CS(=O)(=O)c3cccc4nsnc34)CC2)cc1	inactive
CC(C)(C)c1cc(C(F)(F)F)n2ncc(-c3ccccc3)c2n1	inactive
O=S(=O)(c1ccc(Cl)cc1)N1CCN(c2nc(-c3cccc(Br)c3)nc3ccccc23)CC1	inactive
CN(C)S(=O)(=O)N1CCC(Oc2ccc(C(=O)NC3Cc4ccccc4C3)cc2)CC1	inconclusive: 7.94 µM [inhibitor, partial curve]

SMILES	Potency
N#C/C(=C\c1c(Oc2ccc(Br)cc2)nc2ccccn2c1=O)c1nc2ccccc2s1	inconclusive: 1 µM [inhibitor, full curve, poor fit]
COc1ccc(-c2nnc(NC(=O)c3cccs3)s2)c(OC)c1	inactive
COc1cc(F)ccc1-c1csc(C(C)(O)c2ccc(F)c(F)c2)n1 (stereo not given)	inconclusive: 35.5 µM [inhibitor, single point]
COc1cc(C(=O)Nc2ccc3c(c2)ncn3C)cc(OC)c1OC	inactive
O=C(CSc1nc(=O)n(Cc2cccnc2)c2c1CCC2)Nc1ccc(F)cc1F	inconclusive: 20 µM [inhibitor, partial curve, poor fit]
Cn1c(SCC(=O)Nc2ccc3nc(SCC(=O)N4CCCC4)sc3c2)nnc1-c1ccccc1	inconclusive: 11.2 µM [inhibitor, single point]
CC(=O)c1c(C)[nH]c(C(=O)CN2C(=O)NC(C)(CCC(C)C)C2=O)c1C (stereo not given)	inactive
Cc1ccc(C2C(C#N)=C(N)Oc3c2oc(CO)cc3=O)o1 (stereo not given)	inconclusive: 11.2 µM [inhibitor, partial curve]
CCSc1nnc2c(n1)OC(C)(C)Nc1ccccc1-2	inactive
CCOc1cc(CNc2ccc(O)cc2)cc(Br)c1OCc1ccccc1F	inconclusive: 35.5 µM [inhibitor, single point]
Cc1nc2cc(NC(=O)N3CCN(c4ccccn4)CC3)ccc2o1	inconclusive: 15.8 µM [inhibitor, single point]
COc1ccc(C(=O)NCCSc2ccccn2)cc1	inactive
COc1ccccc1OCC(=O)NCC1(N(C)C)CCCCC1	inactive
CCCC(=O)OCCNc1cc(Sc2nc3ccccc3[nH]2)c2nonc2c1[N+](=O)[O-]	inconclusive: 6.31 µM [inhibitor, single point]
C/C(=N\NC(=O)c1cc(C2CC2)nc2ccccc12)c1ccc(C)s1	inactive
Cc1ccc(Cn2c(CCCNC(=O)C3CCCCC3)nc3ccccc32)cc1	inconclusive: 35.5 µM [inhibitor, single point]
O=C(Cn1ncc2c(Cl)cccc21)NCc1cccc(Br)c1	inconclusive: 35.5 µM [inhibitor, single point]
O=C(NC1CCCCC1)c1ccc(CSc2nc3cccnc3n2Cc2ccccc2F)cc1	inconclusive: 0.447 µM [inhibitor, full curve]
Cc1sc2c(c1C)c(=O)n(-c1ccc(Cl)cc1)c(=O)n2Cc1c(F)cccc1Cl	inconclusive: 3.55 µM [inhibitor, single point]
Cc1cc(OCC(=O)Nc2ccccn2)c2c(C)cc(=O)oc2c1	inactive
CC1CCN(S(=O)(=O)c2cc(C(=O)Nc3ccc(Br)cc3F)n(C)c2)CC1	active: 11.2 µM
COC(=O)c1cc(NC(=O)CCc2c(C)nc3cc(-c4ccccc4)nn3c2C)cc(C(=O)OC)c1	inconclusive: 6.31 µM [inhibitor, partial curve, poor fit]
Cc1ccc(-c2cc(C(=O)N3CCN(c4ccccc4)CC3)c3ccccc3n2)cc1C	inconclusive: 17.8 µM [inhibitor, single point]
Cc1cc(C(C)(C)C)cc(C)c1Cn1c2[n+](c3ccc(C(F)(F)F)cc31)CCCCC2	inconclusive: 22.4 µM [inhibitor, single point]

SMILES	Potency
CCSc1ccc2cc(OC)ccc2[n+]1CC	inactive
O=C(NCCCN1CCOCC1)c1ccc2c(c1)N(Cc1cccc(F)c1)C(=O)c1ccccc1S2	active: 11.2 µM
Cn1c(=O)[nH]c(=O)c2c1nc(SCC(N)=O)n2Cc1cccc(Br)c1	inactive
CCOc1cc2c(cc1OCC)C(c1c(F)cccc1Cl)CC(=O)N2 (stereo not given)	inconclusive: 17.8 µM [inhibitor, partial curve, poor fit]
COc1ccc(-c2nc3c(s2)CN(S(C)(=O)=O)CC3)cc1OC	inconclusive: 5.62 µM [inhibitor, single point]
CCCOc1ccccc1NC(=O)/C=C/C(N)=O	inconclusive: 20 µM [inhibitor, partial curve, poor fit]
CN(Cc1cccc(Cl)c1)C(=O)C1CSC2(C)CCC(=O)N12 (stereo not given)	inconclusive: 35.5 µM [inhibitor, single point]
O=C(Nc1c(F)c(F)c(F)c(F)c1F)c1ccc(Br)o1	inconclusive: 10 µM [inhibitor, partial curve]
Cc1ccc2ccc3cc(C(=O)N4CCN(c5ccccc5)CC4)nc3c2[nH]1	inconclusive: 25.1 µM [inhibitor, single point]
Cc1cccc(C(=O)NCC2CCN(C(=O)c3cccc(C)c3)CC2)c1	inconclusive: 6.31 µM [inhibitor, single point]
CCOc1c2ccc(C(=O)NCc3ccc(OC(F)(F)F)cc3)cc2nn1C	inconclusive: 12.6 µM [inhibitor, single point]
Cc1cccc(Cn2c(C)c(CNC3CCCCC3)c(C(=O)O)c2C)c1	inactive
COc1cccc(CC(=O)n2nc(N)c3cc4ccc(OC)cc4nc32)c1	inactive
COc1ccccc1N1CCN(C(=O)c2ccc(Cn3c(=S)[nH]c4cc5c(cc4c3=O)OCO5)cc2)CC1	inactive
CCOc1cccc(C(=O)Nc2ccc(NC(=O)c3cc4ccccc4o3)c(OC)c2)c1	inactive
Cc1ccc(C(=O)c2coc3ccc(O)cc23)cc1	inconclusive: 20 µM [inhibitor, partial curve]
CC1CCc2cc(F)ccc2N1C(=O)CSc1nnc(-c2cccs2)n1C (stereo not given)	inactive
Cc1ccc(-n2cc(CN3CCC(O)(c4ccccn4)CC3)c(-c3ccc(F)cc3)n2)cc1	inconclusive: 17.8 µM [inhibitor, partial curve, poor fit]
CCOc1ccc(S(=O)(=O)NCc2ccccn2)cc1NC(=O)c1ccccc1	inactive
Cc1cccc(C(=O)Nc2nc(-c3nnn(-c4cc(F)ccc4F)c3C)ns2)c1	inconclusive: 14.1 µM [inhibitor, single point]
Cc1cccn2c(=O)c3cc(C(=O)N(Cc4ccccc4)C(C)C)sc3nc12	inconclusive: 25.1 µM [inhibitor, single point]
CCc1ccccc1OCC(=O)Nc1ccc(C)c(S(=O)(=O)N2CCCCCC2)c1	inconclusive: 35.5 µM [inhibitor, single point]
